Values joined by “and” are separate entries in the source; they are usually repeats but may differ in a detail not shown here. Equal values may be shown once. The whole screen tested about 110,000 compounds, of which about 230 (0.21%) showed an effect of 50% or more. This is one part of the list.
Target: DPAP1 (Plasmodium falciparum, UniProt Q8IIJ9)
Test: primary screen, percent inhibition; read by cleavage of a fluorogenic dipeptide substrate; higher = more effect of the substance
Design: species or system P. falciparum D10 trophozoite lysates; single well
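Also: 30 min substrate incubation versus DMSO and 10 µM JCP410 controls.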

DPAP1, sequence (Q8IIJ9 whole entry, looked up): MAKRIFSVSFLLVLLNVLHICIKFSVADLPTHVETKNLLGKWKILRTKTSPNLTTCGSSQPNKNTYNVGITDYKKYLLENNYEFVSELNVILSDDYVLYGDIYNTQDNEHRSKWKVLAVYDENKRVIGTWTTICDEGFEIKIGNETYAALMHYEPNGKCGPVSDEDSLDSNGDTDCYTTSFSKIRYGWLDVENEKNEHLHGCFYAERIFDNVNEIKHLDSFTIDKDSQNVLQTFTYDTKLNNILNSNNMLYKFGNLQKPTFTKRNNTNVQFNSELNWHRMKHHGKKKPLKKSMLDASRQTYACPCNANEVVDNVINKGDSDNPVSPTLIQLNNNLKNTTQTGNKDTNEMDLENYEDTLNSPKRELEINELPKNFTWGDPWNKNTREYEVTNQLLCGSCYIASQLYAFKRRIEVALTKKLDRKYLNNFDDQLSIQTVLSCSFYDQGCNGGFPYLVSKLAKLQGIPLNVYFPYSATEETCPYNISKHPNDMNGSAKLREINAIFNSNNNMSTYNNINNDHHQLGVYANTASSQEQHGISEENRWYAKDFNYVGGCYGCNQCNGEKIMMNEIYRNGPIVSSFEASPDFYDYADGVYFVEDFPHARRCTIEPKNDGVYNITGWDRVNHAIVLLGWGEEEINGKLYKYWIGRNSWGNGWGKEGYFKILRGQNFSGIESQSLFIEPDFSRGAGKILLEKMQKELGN

**Q.** For `CN1CCC(NCCC2=CCCCC2)CC1`, which “% Inhibition @ 10 uM” value is on record?
**A.** The value was -0.0953%.

**Q.** For `CCOc1ccc2ccccc2c1/C=C1\N=C(SCC)SC1=O`, which “% Inhibition @ 10 uM” value is on record?
**A.** Its value is -1.07%.

**Q.** `COc1ccc(C(N)=O)cc1NC(C)=O` was tested. Which “% Inhibition @ 10 uM” value did it give?
**A.** The value was 6.11%.

**Q.** With `CCN1CCN(Cc2c(NC(=O)c3ccc(F)cc3)sc3c2CCC3)CC1` as the molecule, how does the “% Inhibition @ 10 uM” value read?
**A.** Its value is 6%.

**Q.** Which “% Inhibition @ 10 uM” value does the source give for `CC1CCC(NCc2ccc3c(c2)OCO3)C1` (stereo not drawn) here?
**A.** Its value is -4.95%.

**Q.** Which “% Inhibition @ 10 uM” value does the source give for `Nc1ccc(Nc2nc(-c3ccccc3)cs2)cc1` here?
**A.** Its value is -0.711%.

**Q.** With `N#C/C(=C\c1cc2c(cc1Br)OCO2)c1nc2ccccc2[nH]1` as the molecule, how does the “% Inhibition @ 10 uM” value read?
**A.** The value was -1.44%.

**Q.** How did the “% Inhibition @ 10 uM” value turn out when `Cc1sc2nc3c4ccccc4c(N4CCC(C)CC4)nn3c(=O)c2c1C` was run?
**A.** Its value is 3.29%.

**Q.** Which “% Inhibition @ 10 uM” value does the source give for `CCOCC(O)CSc1nc2ccccc2s1` (stereo not drawn) here?
**A.** Its value is -2.36%.

**Q.** For `CC1CC(C)(C)NC(=S)N1CCC(=O)N1CCc2ccccc2C1` (stereo not drawn), which “% Inhibition @ 10 uM” value is on record?
**A.** Its value is 4.33%.

**Q.** `CCOC(=O)c1c(-c2ccccc2)csc1NC(=O)C1Cc2ccc(C)cc2C(=O)O1` (stereo not drawn) was tested. Which “% Inhibition @ 10 uM” value did it give?
**A.** The value was 0.221%.

**Q.** Which “% Inhibition @ 10 uM” value does the source give for `Cc1ccc(C(=O)Nc2ccc(CC(=O)O)cc2)cc1C` here?
**A.** Its value is 2.46% and 0.163%.

**Q.** With `CCCN(CCC)C(=O)c1ccccc1NC(=O)c1cccs1` as the molecule, how does the “% Inhibition @ 10 uM” value read?
**A.** The value was 9.6%.

**Q.** For `COc1ccccc1OCc1nc(C#N)c(NCCc2ccccc2)o1`, which “% Inhibition @ 10 uM” value is on record?
**A.** Its value is -2.77%.

**Q.** For `N#CCNC(=O)[C@H](Cc1ccc2ccccc2c1)NC(=O)c1ccc(-c2csc(Nc3ccncc3)n2)cc1`, which “% Inhibition @ 10 uM” value is on record?
**A.** The value was 2.22%.

**Q.** With `O=C(CCc1ccccc1)NCCc1nc2ccccc2[nH]1` as the molecule, how does the “% Inhibition @ 10 uM” value read?
**A.** Its value is 0.222%.

**Q.** For `Cc1nn2c(=O)c(NC(=O)c3ccccc3)cnc2s1`, which “% Inhibition @ 10 uM” value is on record?
**A.** The value was -1.52%.

**Q.** How did the “% Inhibition @ 10 uM” value turn out when `Oc1cc(-c2ccccc2)nc(SCCOc2ccccc2)n1` was run?
**A.** Its value is 2.17%.

**Q.** `C/N=C/C1=C(O)c2ccccc2C1=O` was tested. Which “% Inhibition @ 10 uM” value did it give?
**A.** Its value is -1.4%.

**Q.** How did the “% Inhibition @ 10 uM” value turn out when `CCS(=O)(=O)N1CCN(Cc2noc(CCC(=O)N3CCOCC3)n2)CC1` was run?
**A.** Its value is 1.41%.

**Q.** `COc1cc2c(cc1OC)-c1nnc(-c3cccs3)n1C(C)(C)C2` was tested. Which “% Inhibition @ 10 uM” value did it give?
**A.** The value was -4%.

**Q.** `CCOc1ccc(CNc2nc3ccccc3n2CCN2CCOCC2)cc1` was tested. Which “% Inhibition @ 10 uM” value did it give?
**A.** The value was -6.96%.

**Q.** For `COc1cc2nc(NCCCN(C)Cc3ccccc3)n3nc(-c4ccccc4)nc3c2cc1OC`, which “% Inhibition @ 10 uM” value is on record?
**A.** The value was 2.6%.

**Q.** For `Cc1nn(C)c(C)c1NC(=O)c1ccnn1C`, which “% Inhibition @ 10 uM” value is on record?
**A.** Its value is 2%.

**Q.** For `CC(=O)N1CCC2(CC1)CC(=O)c1cc(OCC(=O)NCc3ccccc3Cl)ccc1O2`, which “% Inhibition @ 10 uM” value is on record?
**A.** Its value is 1.37%.

**Q.** For `COc1ccc(Cn2ccc3nc(C)c(C(=O)N4CCC(C)CC4)cc3c2=O)cc1`, which “% Inhibition @ 10 uM” value is on record?
**A.** Its value is -0.656%.

**Q.** Which “% Inhibition @ 10 uM” value does the source give for `COc1cc(/C=C/c2nc(C#N)c(N3CCC(C(N)=O)CC3)o2)cc(OC)c1OC` here?
**A.** Its value is 2.54%.

**Q.** `O=C(c1cccnc1)N1CCN(C(=O)c2cccc(F)c2)CC1` was tested. Which “% Inhibition @ 10 uM” value did it give?
**A.** The value was 3.27%.

**Q.** With `O=C(Cc1ccccc1)Nc1ccc(-c2ccccc2)cc1[N+](=O)[O-]` as the molecule, how does the “% Inhibition @ 10 uM” value read?
**A.** Its value is -4.58%.

**Q.** `Cc1nn(-c2ccccc2)c2c1C(C(F)(F)F)(C(F)(F)F)N=C(N1CCOCC1)O2` was tested. Which “% Inhibition @ 10 uM” value did it give?
**A.** Its value is -5.4%.

**Q.** For `O=C(O)c1cccc2c1C(=O)N(Cc1cccnc1)C2`, which “% Inhibition @ 10 uM” value is on record?
**A.** The value was -6.67%.

**Q.** With `Cn1c(=O)c2sccc2n2c(CCCC(=O)NCCC3=CCCCC3)nnc12` as the molecule, how does the “% Inhibition @ 10 uM” value read?
**A.** The value was 0.6%.

**Q.** `COc1ccc(-c2nc(-c3ccc(C)cc3)no2)cc1` was tested. Which “% Inhibition @ 10 uM” value did it give?
**A.** Its value is 0.0538%.

**Q.** For `CCO/C(O)=C/c1nc2nonc2nc1O`, which “% Inhibition @ 10 uM” value is on record?
**A.** The value was -9.83%.

**Q.** For `COc1ccc(C2CC(=O)C3=C(C2)NC(=O)CC3c2ccccc2C)cc1OC` (stereo not drawn), which “% Inhibition @ 10 uM” value is on record?
**A.** Its value is -2.87%.

**Q.** Which “% Inhibition @ 10 uM” value does the source give for `COc1cc(C(=O)NCc2cccnc2)ccc1OCc1ccc(Cl)cc1` here?
**A.** Its value is -1.57%.

**Q.** How did the “% Inhibition @ 10 uM” value turn out when `Cc1c(C(=O)O)oc2c1C(=O)CCC2` was run?
**A.** Its value is 3.24%.

**Q.** `CC(C(=O)NCCC1=CCCCC1)n1ncn2cccc2c1=O` (stereo not drawn) was tested. Which “% Inhibition @ 10 uM” value did it give?
**A.** Its value is -8.23%.

**Q.** For `CC(C)OCCCNC(=O)Cn1nc(-c2ccc(Cl)cc2)ccc1=O`, which “% Inhibition @ 10 uM” value is on record?
**A.** The value was -1.79%.

**Q.** For `Cc1ccc(Cc2cnc(NC(=O)/C(C#N)=C/c3ccccc3)s2)cc1`, which “% Inhibition @ 10 uM” value is on record?
**A.** Its value is -5.92%.

**Q.** `CCCN1CCC(NCCc2cccc(F)c2)CC1` was tested. Which “% Inhibition @ 10 uM” value did it give?
**A.** Its value is 1.88%.

**Q.** Which “% Inhibition @ 10 uM” value does the source give for `Cc1ccc(CNC(=O)C2CCN(S(=O)(=O)N3CCOCC3)CC2)cc1` here?
**A.** Its value is 0.387%.

**Q.** `COc1ccc(OCC(O)Cn2c(N)nc3c2c(=O)[nH]c(=O)n3C)cc1` (stereo not drawn) was tested. Which “% Inhibition @ 10 uM” value did it give?
**A.** The value was -0.053%.

**Q.** With `Cc1ccc2c(c1)cc1c(=O)n(CC(=O)NCC(C)c3ccccc3)nc(C)n12` (stereo not drawn) as the molecule, how does the “% Inhibition @ 10 uM” value read?
**A.** Its value is 1.68%.

**Q.** For `O=C(CCc1nc(CN2CCN(S(=O)(=O)c3cccs3)CC2)no1)N1CCCC1`, which “% Inhibition @ 10 uM” value is on record?
**A.** Its value is -0.899%.

**Q.** `COc1ccccc1N1CCN(C(=O)c2cccc(C)c2)CC1` was tested. Which “% Inhibition @ 10 uM” value did it give?
**A.** Its value is -2.32%.

**Q.** How did the “% Inhibition @ 10 uM” value turn out when `N#C/C(=C/c1cccnc1)c1nc(-c2ccccc2)cs1` was run?
**A.** Its value is 0.385%.

**Q.** Which “% Inhibition @ 10 uM” value does the source give for `Cc1ccccc1OC(C)C(=O)Nc1nc2ccccc2s1` (stereo not drawn) here?
**A.** The value was 2.03%.

**Q.** Which “% Inhibition @ 10 uM” value does the source give for `CCOc1ccc(C2C(C(=O)c3ccc4c(c3)OCCO4)=C(O)C(=O)N2CC2CCCO2)cc1` (stereo not drawn) here?
**A.** Its value is -6.4%.

**Q.** With `COc1ccc(-c2csc(Nc3cccc4ccccc34)n2)cc1` as the molecule, how does the “% Inhibition @ 10 uM” value read?
**A.** Its value is 1.96%.

**Q.** Which “% Inhibition @ 10 uM” value does the source give for `Cn1cc([N+](=O)[O-])c(C(=O)n2cccn2)n1` here?
**A.** The value was -1.29%.

From PMC6919601, “Identification of Plasmodium dipeptidyl aminopeptidase allosteric inhibitors by high throughput screening” (PLoS ONE, 2019)
